PubChem BioAssay AID1345083 (National Center for Advancing Translational Sciences (NCATS), 2018)
In all, about 94,000 compounds went through this assay and about 6,200 (6.6%) were called active. This list was built around the results that the source calls inconclusive (neither active nor inactive); the mix of calls is not that of the screen. Calls come from the whole dose curve; as a rule, active = well fitted inhibition curve with a large enough effect; inconclusive = small, poorly fitted or top-dose-only effect; inactive = flat fitted curve, though single readings scatter. Potencies of inconclusive entries are doubtful fits and often do not repeat.

Test: Cytotoxic Profiling in HEK 293 Cell Line of Diverse Libraries Using Quantitative High-Throughput Screening; note: nearly all actives have a fitted effect of over 60% in size
Details: HEK 293 viability, ATP luminescence (CellTiter-Glo), 48-72 h; series mostly up to 115 µM
Summary of the method: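 Viability of HEK 293 cells, plated at 250 cells/well, was judged by cellular ATP after compound treatment for 48 or 72 hr. Luminescence was imaged 10 min after CellTiter-Glo addition at room temperature.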
Potency is the fitted concentration of half-maximal effect; tags give direction and shape of the fitted curve.

Structure (SMILES)	Potency
Cn1cnc(C(=O)N2CCC3(CC2)CN(Cc2ccccc2)CC3CO)c1 (centres undefined)	inconclusive: 89.1 µM [inhibitor, single point]
Cc1ccc(-c2ccccc2CN2CCC(C(=O)NCC(F)(F)F)CC2)cc1Cl	active: 50.1 µM
COc1cccc(CNC(=O)C2CN(c3cccc(Cl)c3)C(=O)N2)c1 (centres undefined)	inconclusive: 89.1 µM [inhibitor, single point]
O=C1CC2(CCN(C(=O)C3CCCN(C(=O)c4ccccc4)C3)CC2)Oc2ccccc2N1 (centres undefined)	inconclusive: 79.4 µM [inhibitor, partial curve, poor fit]
O=C1COc2ccc(Nc3ccccc3)nc2CN1CCOc1ccccc1	inconclusive: 28.2 µM [inhibitor, full curve, poor fit]
O=C(NCc1nnc2ccc(-c3ccccc3)nn12)c1cc2ccccc2[nH]1	inconclusive: 89.1 µM [inhibitor, single point]
O=C(O)C1CCc2nnc(C3CCN(C(=O)C4CCCCC4)CC3)n21 (centres undefined)	inactive
Cn1ncc2c(C(=O)NCC3CC3)cc(-c3ccc(Cl)cc3Cl)nc21	inconclusive: 50.1 µM [inhibitor, partial curve, poor fit]
O=C1[C@H]2CN(Cc3ccc(F)c(Cl)c3)C[C@H]2C(=O)N1Cc1ccc2c(c1)OCO2	active: 35.5 µM
CSCCNC(=O)c1nc2sccn2c1Br	inactive
COc1cccc(C(=O)Nc2ccc3ncnc(N4CCCCC4)c3c2)c1	inconclusive: 50.1 µM [inhibitor, partial curve, poor fit]
Cc1ccc(-c2ncc(C(=O)Nc3ccc(F)cc3C)c(-c3ccncc3)n2)cc1	active: 39.8 µM
CCCC(=O)N1Cc2ccccc2CC2(CCCCN2Cc2ccccn2)C1 (centres undefined)	inconclusive: 50.1 µM [inhibitor, partial curve, poor fit]
Cc1cnc(C(=O)NC2C[C@H]3CC[C@@H](C2)N3C(=O)c2ccc(C)c(C)c2)cn1 (some centres undefined)	inactive
O=C(c1ccoc1)N1CCC(n2cc(-c3nc(-c4ccccc4)no3)nn2)C1 (centres undefined)	inconclusive: 50.1 µM [inhibitor, partial curve, poor fit]
CC(C)C(=O)N1CCCC(c2nn(C)c(=O)n2C(C)C)C1 (centres undefined)	inactive
O=C(Cc1cccc(Cl)c1)N1CCCN(c2ccc3nnc(-c4ccccc4)n3n2)CC1	inactive
Cc1ccc(C(=O)N2CCCC3(C2)NC(=O)c2ccccc2O3)cc1 (centres undefined)	inconclusive: 100 µM [inhibitor, single point]
COC[C@@H]1CN(Cc2cccc(C#N)c2)C[C@H]1C(=O)N(C)C	inactive
